Experimental data reported in ChEMBL document CHEMBL4888484, “Replenishing the malaria drug discovery pipeline: Screening and hit evaluation of the MMV Hit Generation Library 1 (HGL1) against asexual blood stage Plasmodium falciparum ,using a nano luciferase reporter read-out” (2022).
Out of some 150,000 compounds screened, about 540 (0.36%) showed an effect of 50% or more. This is one part of the list.

The molecules below were run on Plasmodium falciparum (assay: Primary screen in NF54 nanoGlo assay, in single point, at 2uM, 72h; a lower Z score goes with more inhibition). Conditions: timepoint 72 hour.
Assay type: functional, Erythrocyte

| Structure (SMILES) | % Inhibition | Z score |
| --- | --- | --- |
| COc1cc(CNc2ccc3c(c2)CCNC3=O)ccc1C | -7% | 1.36 |
| COCc1nc(C(=O)OCCc2cnn(C)c2)cs1 | 0% | -0.02 |
| COc1cc2c(cc1CN1CCC[C@H](NC(C)=O)C1)OCCCO2 | 12% | -1.6 |
| COCCC(=O)N1CCC2(CC1)C[C@@H](c1ccccc1)C(=O)N(C)C2 | 4% | -0.78 |
| O=C(Nc1nc(-c2ccc3c(c2)OCCO3)cs1)c1ccncc1 | -5% | 0.84 |
| Cn1c(C(=O)N(C[C@H]2CCOC2)c2ccccc2)cc2ccccc21 | -7% | 1.22 |
| CCN(CC)CCCN[C@@H](C)C(=O)N1c2ccc(Cl)cc2NC(=O)c2ccccc21 | -15% | 1.75 |
| CCn1ncc(CN(C)Cc2nnc(C)s2)c1C | 4% | -0.62 |
| O=C1CCCN1c1ccc(CNc2nc(=O)c3cn[nH]c3[nH]2)cc1 | 9% | -1.17 |
| Cn1cncc1CC(=O)Nc1ccnc(NC(=O)OC(C)(C)C)c1 | 94% | -14.52 |
| CN1CCN(c2cc(C(=O)N3CC[C@H](Cc4ccc(F)cc4)C3)ccn2)CC1 | 4% | -0.5 |
| CC1CCN([C@@H]2[C@H](O)[C@H](CO)O[C@@H]2CN(Cc2ccc(F)cc2)Cc2ccc(F)cc2)CC1 | -3% | 0.52 |
| CCN1CCN(c2nc3ncn(CC(=O)Nc4ccc(OC)c(Cl)c4)c(=O)c3s2)CC1 | -8% | 1.33 |
| COCC[C@]1(NC(=O)c2ccc(F)cc2)CCN(C(=O)c2cnco2)C1 | -1% | 0.14 |
| CCc1n[nH]c2c1CN(Cc1cccc(O)c1Cl)CC2 | -9% | 0.86 |
| COc1ccc(C2=NS(=O)(=O)N(C)C(C(=O)N3CCc4ccccc4C3)=C2)cc1OC | -9% | 1.74 |
| C[C@@H](c1ccccc1)N(Cc1nc(C(=O)N2CCN(C)CC2)co1)Cc1ccc(Cl)cc1Cl | -2% | 0.3 |
| Cc1ccc(NS(=O)(=O)c2cc(-c3nc(C)c(C)s3)sc2C)c(C)c1 | -5% | 0.62 |
| NC(=O)c1cnc2n1CCN(C(=O)c1cnc3ccc(F)cc3c1N)C2 | -12% | 1.24 |
| O=C(N1CCn2c(Cc3cccc(F)c3)nnc2C1)[C@@]12CCC[C@@H]1C2 | -10% | 1.31 |
| Cc1ccc(Cl)cc1N1CCC(CNC(=O)c2ncoc2C2CCCO2)C1 (centres undefined) | -5% | 0.53 |
| Cc1nsc(C)c1C(=O)N1CCC(S(=O)(=O)N2CCCC2)CC1 | -12% | 1.85 |
| COc1cc(-c2noc(CN3CCCCC[C@@H]3CCO)n2)cc(Cl)c1OC | 2% | -0.29 |
| CCO[C@H]1CN(CC)C[C@@H]1NC(=O)c1cc(=O)cc(C)[nH]1 | -7% | 1.51 |
| O=C(Nc1nc(-c2ccc(Br)o2)ns1)c1ccco1 | -8% | 1.09 |
| O=C1CC[C@@]2(CCCN(c3nc4ccccc4s3)C2)CN1Cc1ccccn1 | 1% | -0.16 |

| Structure (SMILES) | % Inhibition | Z score |
| --- | --- | --- |
| COC(=O)c1conc1C(C)(C)NC(=O)c1cc(Cl)cn1C | -12% | 1.21 |
| Cc1ccc(NS(=O)(=O)c2ccc(NC(=O)CN(c3cc(Cl)ccc3C)S(C)(=O)=O)cc2)cc1C | 37% | -4.19 |
| COC(=O)c1ccc(N2CCN(C(=O)C[C@H](C)n3ccnc3)CC2)cc1 | -3% | 0.47 |
| Cc1nn(CC(=O)NCCCOC(C)C)c(=O)c2c(C)n(-c3ccccc3)nc12 | -9% | 1.2 |
| COC(=O)CNC(=O)NC1CCCC1 | 11% | -1.32 |
| Cc1nccc(NC(=O)NC[C@H]2CCCCN2C2CC2)n1 | -11% | 1.36 |
| COC[C@H]1[C@@H](NS(=O)(=O)c2ccc(F)cc2)[C@H]2CCO[C@H]21 | 5% | -0.89 |
| Cc1ccc(C(=O)NC2(c3ncon3)CCOCC2)cc1Cl | -4% | 0.37 |
| O=c1[nH]c(-c2ccccc2Cl)nc2ccccc12 | -13% | 2.13 |
| CCOc1cc(S(=O)(=O)N2CCC[C@H](n3nc4ccccc4n3)C2)c(OCC)cc1-n1cnnn1 | 9% | -1.55 |
| COc1ccc(N[C@@H](C)c2cccc(CO)c2)cn1 | -10% | 1.08 |
| CCN(C(=O)CS(=O)(=O)Cc1coc(-c2ccccc2)n1)C1CC1 | 9% | -1.1 |
| CC(C)C(=O)Nc1nc2c(s1)CN(S(=O)(=O)c1ccccc1)CC2 | -1% | 0.13 |
| Oc1ccccc1CN(C[C@H]1CCCO1)c1ncc(Br)cn1 | 4% | -0.75 |
| Cc1sc(-c2nnc(C(=O)N3CCCCC3)o2)cc1S(=O)(=O)NC1CCCC1 | -14% | 2.07 |
| COc1nccnc1O[C@H]1CCN(C(=O)CC(F)(F)F)C1 | -5% | 0.56 |
| OC1=Nc2c(ncn2-c2cccnc2)[C@@H](c2cccc(O)c2)C1 | 2% | -0.38 |
| Cc1ccc(CCNC(=O)N2C3CCC2CC(c2ccnn2C)C3)c(C)c1 (centres undefined) | -11% | 1.98 |
| COCCn1cc2c(n1)[C@@H](Nc1nccc(OC)n1)CCC2 | -13% | 1.32 |
| C[C@]1(C(=O)O)CCN(C(=O)c2cc3c(s2)CCCC3)C1 | -17% | 3.24 |
| COc1ccc(-n2nc(C)c(CCC(=O)N3CCOCC3)c2Oc2ccccc2F)cc1 | 1% | -0.21 |
| O=C(NCc1ccc2c(c1)OCO2)[C@H]1CCn2c(nc3ccccc32)C1 | -14% | 1.46 |
| Cc1cccc(OCC(=O)N2CCCN(c3nc4c(s3)c(C)nn4-c3ccc(F)cc3)CC2)c1 | -4% | 0.68 |
| CCC1C(C(=O)O)CCN1S(=O)(=O)c1c(C)ccc2cccnc12 (centres undefined) | 5% | -0.53 |
| Cc1nc[nH]c1CN1C[C@H]2CC[C@@H](C1)N(C(=O)CCc1ccccn1)C2 | -13% | 1.93 |
| Cc1oc(-c2ccc(Cl)cc2)cc1C(=O)NC1CC1 | -9% | 1.55 |
